# Assay results taken from the supplement of paper PMC12217912.
# Some of the results follow. The full chains were built here from the parent and the listed change. Values near 0.05 are background.
# B1: TEV protease; numbered along this chain (parent)
# chain: MGESLFKGPRDYNPISSSICHLTNESDGHTTSLYGIGFGPFIITNKHLFRRNNGTLVVQSLHGVFKVKDTTTLQQHLVDGRDMIIIRMPKDFPPFPQKLKFREPQREERICLVTTNFQTKSMSSMVSDTSCTFPSGDGIFWKHWIQTKDGQCGSPLVSTRDGFIVGIHSASNFTNTNNYFTSVPKNFMELLTNQEAQQWVSGWRLNADSVLWGGHKVFMVKPEEPFQPVKEATQL
# Variants of: B1
# Assay: raw area under fraction-flipped curve 0-4 h after induction (AUC4h, not background-subtracted), DNA-recorder readout of cleavage of the substrate (dimensionless); higher = more cleavage of the substrate by the protease variant
# Settings: temperature: 34 °C; time window: 0-4 h after rhamnose induction
# Protocol: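 In vivo DNA recorder in E. coli TOP10(DE3) ΔrhaA at 34 °C. Each TEVp single-site mutant (parent TEVp 0) is paired with a single-site variant of the 7-mer TEVs (canonical ENLYFQ|S). The substrate sits between flexible linkers in a Bxb1-sfGFP-TEVs-SsrA fusion, so cleavage stabilises Bxb1 and speeds flipping of a recombination array, read by NGS. The value is the raw area under the fraction-flipped curve over 0-4 h after rhamnose induction (AUC4h), with ≥20 reads per time point. It is not background-subtracted; inactive controls average about 0.047.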
# 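Also: Bxb1 expression induced with 0.2% (w/v) L-rhamnose at OD600 near 0.5, cultures sampled hourly, flipped fraction per protease–substrate barcode pair counted by paired-end Illumina sequencing.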
Variant,area with substrate ENLYFQA,area with substrate ENLYFQC,area with substrate ENLYFQE,area with substrate ENLYFQF,area with substrate ENLYFQG,area with substrate ENLYFQI,area with substrate ENLYFQK,area with substrate ENLYFQN,area with substrate ENLYFQR,area with substrate ENLYFQS,area with substrate ENLYFQT,area with substrate ENLYFQV,area with substrate ENLYFQW,area with substrate ENLYFQY,area with substrate ENLYFQM,area with substrate ENLYFQL,area with substrate ENLYFQP,area with substrate ENLYFQD,area with substrate ENLYFQQ,area with substrate ENLYFQH
V64L,0.0996,0.0937,0.0757,0.0576,0.0779,0.0362,0.077,0.0613,0.045,0.102,0.0609,0.0579,0.058,0.0875,,,,,,
V64P,0.0975,0.107,,,0.0628,0.0631,,0.074,0.0436,0.0964,0.0626,0.0614,,0.0693,0.0923,,,,,
V64Q,0.109,0.109,,,0.0865,,0.065,,0.0644,0.0931,,,,0.0905,0.0801,0.0627,0.0633,,,
T72A,0.113,0.115,,,0.115,0.0591,,0.0747,,0.105,,,,,0.0886,0.0426,,0.0842,,
T72G,0.0792,0.0864,,0.0848,0.0814,0.0579,0.0693,0.0682,0.0569,0.0919,0.0663,,,0.0613,0.086,,0.0432,,0.0679,
T72H,0.0886,0.111,,0.0767,0.0914,0.0597,,0.0797,0.0828,0.0944,,0.0605,0.0642,0.0648,0.0896,0.0486,0.0605,0.0592,0.0796,0.0707
T72R,0.0768,0.107,,,0.119,,0.0529,0.0794,0.0584,0.0996,0.0509,,0.0641,,0.0835,0.0685,0.0573,,,0.0671
T72S,0.0914,0.12,,0.089,,,0.0559,0.0818,0.0574,0.0973,0.0678,,0.059,,,,,0.0791,,
T72V,0.089,,,,0.0923,0.0611,0.0582,0.0736,0.064,0.097,0.0674,0.0487,0.0699,0.0862,0.0811,0.0627,,,,0.0865
Q75P,0.0457,0.0562,0.0513,0.0496,0.0618,0.0538,0.0548,0.0574,0.0686,0.0579,0.0541,0.0624,0.0714,0.0464,0.0574,0.0413,0.0396,0.0553,0.0556,0.0568
G80C,0.0982,0.122,,0.08,,,0.0613,0.0814,0.0683,0.11,0.0492,,0.0641,0.0879,0.0819,0.0605,,0.0642,,
G80K,0.106,0.119,0.0562,,0.1,0.0542,0.0638,0.0677,,0.103,0.0723,0.0711,0.0832,,0.0882,0.0727,,0.0651,0.0744,
G80N,0.0865,0.109,0.0708,,,0.0696,0.0652,0.0617,0.0544,0.117,0.0689,0.0587,0.0773,0.0716,0.103,0.0478,0.0367,0.0923,,
G80P,0.09,0.0797,,,0.144,0.0741,,,,0.0808,,,,,,0.0599,,,,
G80T,0.0928,0.0907,,0.0742,0.0598,0.0584,,0.088,0.047,0.112,0.044,0.0641,0.0847,0.0756,0.078,0.0601,0.0613,0.0729,,
M88E,0.0689,,,,,,,0.0527,0.0548,0.0642,0.0484,0.06,0.0342,,,0.0532,,,,
M88Q,0.118,0.118,0.081,0.0781,0.106,0.0618,,0.0834,0.0592,0.103,,0.0719,,,,,,,,
M88W,0.0865,0.107,,,,0.0428,0.0537,0.075,0.0494,0.0834,0.0578,0.0345,0.0483,0.0559,0.0537,,0.043,0.0466,,0.0644
M88Y,0.0782,0.0753,,,,,0.061,0.0721,0.0403,0.0629,,,0.062,,,0.0554,,0.0627,,0.0636
P93S,0.0829,0.079,,0.0687,0.0876,0.0923,,0.0804,0.0639,0.0996,0.0661,0.0623,0.0625,,0.0788,0.0738,0.0608,0.062,,
P96K,0.0982,0.123,,,0.125,0.0452,0.0637,0.0869,0.0644,0.104,,,0.0587,0.0886,0.1,0.0815,,,,
P96M,0.104,,,,0.081,,0.0567,0.0564,0.0542,0.0962,0.0683,,0.0602,0.071,,,0.0522,,,
P96N,0.0793,0.0855,,0.0728,0.115,0.0502,0.0603,0.0792,,0.103,0.0386,0.0738,0.065,0.0917,0.0869,,0.0612,,,0.0936
P96V,0.0933,0.103,,,,0.0542,,0.0759,0.0595,0.0975,0.0679,,,0.0812,0.0839,0.0544,0.0562,0.0689,,0.0878
E103G,0.0782,0.105,,,,0.0668,0.0662,0.0825,0.0565,0.0928,0.0616,0.0842,0.0823,0.0681,0.0865,0.0644,0.0452,0.0674,,0.0777
P104D,0.0423,0.0529,,0.0452,0.0265,0.0438,0.0426,0.0423,0.0478,0.0498,0.0488,0.0497,0.0524,0.0415,0.0194,0.0429,0.0582,,0.0485,0.0569
